Results: US12564641B2 (EISAI R&D MANAGEMENT CO., LTD., priority 2019, dated 2026)

Tests used:
[1] = tested on: human gastric cancer NCI-N87 xenograft; assay: Human gastric cancer NCI-N87 xenograft model (Study M109-010-2018); assay type: in vivo, mouse; details: 10 mg/kg
[2] = tested on: human mesothelioma HAY xenograft; details: single dose 5 mg/kg
Experimental: Female CD-1 IGS mice (Charles River, 7-9 weeks old) were used for the maximum tolerated dose (MTD) study, female NOD.CB17-SCID mice (Jackson Laboratory) were used for the NCI-H2110 and HAY xenograft studies, and female NCr nude mice (Taconic, 5 weeks old) were used for the NCI-N87 xenograft studies. Upon arrival, animals were acclimated for 5-7 days prior to inoculation.
Cryopreserved NCI-H2110, NCI-N87, or HAY cells from frozen stocks were cultured in medium containing necessary supplements.
Mice were injected subcutaneously with 100 μL/mouse of cell mixture and monitored for body weight and tumor growth.
Mice were randomized to five mice per group once tumor implants reached an average volume of 100 mm^3. Treatment was given intravenously at a volume of 200 μL. Terminal body weight was measured and recorded at the end of each study.
Comparison of tumor growth within each experimental group was also performed using the same statistical analysis.

[3] = Pharmacokinetics (total antibody and intact ADC, Gyros) in NCI-N87 tumor-bearing mice (Example 9); assay type: in vivo, mouse; details: single dose 10 mg/kg
Experimental: (§1) PK analysis was performed using both an intact ADC assay and a total antibody assay. Total antibody refers to the sum total of all species, including conjugated and unconjugated species (i.e., DAR0+DAR1+DAR2+ . . . +DARn), whereas intact ADC refers to all conjugated species (i.e., DAR1+DAR2+ . . . +DARn). Total antibody assay used biotinylated mesothelin for capture and AlexaFluor647-labelled anti-human Fc for detection. Intact ADC assay used biotinylated anti-eribulin 5E4 for capture and AlexaFluor647-labelled anti-human Fc for detection. Sample analysis was performed on a Gyros analyzer. Data analysis was performed in WatsonLIMS 7.4.1 and plotted in Microsoft Excel. Eribulin was quantitated using LC-MS from plasma, tumor, and bone marrow samples. 9.1.3 LC-MS

[4] = Eribulin quantitation by LC-MS in plasma, tumor, and bone marrow (Example 9); assay type: in vivo, mouse; details: single dose 10 mg/kg
Experimental: as §1

[5] = DAR of ADC in plasma samples by LC-MS (Example 9); assay type: in vivo, mouse; details: single dose 10 mg/kg; for Averaged DAR / H-chain (DAR in plasma) / L-chain (DAR in plasma): plasma
Experimental: Dynabeads M-280 streptavidin (100 μL) were incubated with 3 μg of capture select human IgG-Fc PK biotin conjugate for 1 hour at room temperature, then washed with HBS-EP buffer. […] Washed beads containing complex were deglycosylated with Rapid PNGaseF (1 μL) in PNGase buffer for 1 hour at 37° C., then washed once in HBS-EP buffer. […] Samples were analyzed for intact or reduced mass with Synapt G2/M-class UPLC analysis.

[6] = tested on: human mesothelioma PDX Meso7212; details: mouse, in vivo, 10 mg/kg
[7] = tested on: human mesothelioma PDX Meso7212; assay: Human mesothelioma PDX model Meso7212 (Example 3); details: for anti-tumor response: single administration of 10 mg/kg
[8] = eribulin in bone marrow, NCI-N87-tumor-bearing mice
[9] = eribulin in plasma, NCI-N87-tumor-bearing mice
[10] = eribulin in tumor, NCI-N87-tumor-bearing mice
[11] = NCI-N87 tumor-bearing mice, […]

B1: MORAb-109 (DAR6) (conjugate)
heavy: QVQLVESGGGVVQPGRSLRLSCAASGIDLSSYAMSWVRQAPGKGLEWIGVIDISGNRFYADWVKGRFTISRDNSKNTLYLQMSSLRAEDTAVYYCARVDSRAWGPFNLWGQGTLVTVSS[skipping human IgG1 constant region]
light: DYQMTQSPSSLSASVGDRVTITCQASQSIFSYLAWYQQKPGKAPKLLIYDASDLASGVPSRFSGSGSGTDFTLTISSLQCEDAATYYCQQGYTRSDVDNAFGGGTKVEIKRTVAAPSVFIFPPSDEQLKSGTASVVCLLNNFYPREAKVQWKVDNALQSGNSQESVTEQDSKDSTYSLSSTLTLSKADYEKHKVYACEVTHQGLSSPVTKSFNRGEC
Question: For B1, which anti-tumor response ([1]; FIG. 13A) is on record?
Answer: The anti-tumor response was “durable and similar anti-tumor responses”.

Question: And the body weight change ([1]; FIG. 13B)?
Answer: Its body weight change is “little to no weight loss”.

Question: And the anti-tumor response ([2]; FIG. 14A)?
Answer: Its anti-tumor response is “durable and similar anti-tumor responses”.

Question: And the body weight change ([2]; FIG. 14B)?
Answer: Its body weight change is “no body weight loss”.

Question: What about the “AUC0-inf, ADC” value [3] of the same molecule?
Answer: Its value is 13700 µg·h/mL.

Question: What about the “AUC0-inf, Total Ab” value [3] of the same molecule?
Answer: The value was 14400 µg·h/mL.

Question: What about the “CLtot, ADC” value [3] of the same molecule?
Answer: The value was 17.5 mL/day/kg.

Question: And the “Cmax, Total Ab” value [3]?
Answer: The value was 148 µg/mL.

Question: What about the “T1/2, ADC” value [3] of the same molecule?
Answer: Its value is 103 h.

Question: What about the “T1/2, Total Ab” value [3] of the same molecule?
Answer: The value was 129 h.

Question: What about the “Tmax, Total Ab” value [3] of the same molecule?
Answer: Its value is 0.17 h.

Question: And the “Vdss, ADC” value [3]?
Answer: Its value is 0.1 L/kg.

Question: What about the “AUC0-inf, Bone marrow ERI” value [4, 8] of the same molecule?
Answer: The value was 6.7 µg·h/mL.

Question: And the “T1/2, Bone marrow ERI” value [4, 8]?
Answer: The value was 76 h.

Question: And the “Tmax, Bone marrow ERI” value [4, 8]?
Answer: Its value is 3 h.

Question: What about the “AUC0-inf, Plasma ERI” value [4, 9] of the same molecule?
Answer: Its value is 0.121 µg·h/mL.

Question: What about the “Cmax, Plasma ERI” value [4, 9] of the same molecule?
Answer: Its value is 0.0026 µg/mL.

Question: And the “T1/2, Plasma ERI” value [4, 9]?
Answer: The value was 33 h.

Question: What about the “Tmax, Plasma ERI” value [4, 9] of the same molecule?
Answer: Its value is 1 h.

Question: And the “AUC0-inf, Tumor ERI” value [4, 10]?
Answer: The value was 16.0 µg·h/mL.

Question: What about the “Cmax, Tumor ERI” value [4, 10] of the same molecule?
Answer: Its value is 96 ng/g.

Question: What about the “T1/2, Tumor ERI” value [4, 10] of the same molecule?
Answer: The value was 98 h.

Question: What about the “Tmax, Tumor ERI” value [4, 10] of the same molecule?
Answer: The value was 24 h.

Question: What about the “plasma levels of eribulin” value ([4]; DAR6 vs DAR2) of the same molecule?
Answer: Its value is “higher plasma levels of eribulin”.

Question: And the “Averaged DAR” value [5, 11]?
Answer: The value was 5.52.

Question: What about the “H-chain (DAR in plasma)” value [5, 11] of the same molecule?
Answer: The value was 1.23.

Question: And the “L-chain (DAR in plasma)” value [5, 11]?
Answer: Its value is 1.52.

Question: What about the “Averaged DAR” value ([5]; 8 hr) of the same molecule?
Answer: The value was 5.18.

Question: And the “H-chain (DAR in plasma)” value ([5]; 8 hr)?
Answer: The value was 1.13.

Question: And the “L-chain (DAR in plasma)” value ([5]; 8 hr)?
Answer: Its value is 1.46.

Question: What about the “Averaged DAR” value ([5]; 24 hr) of the same molecule?
Answer: Its value is 4.15.

Question: What about the “H-chain (DAR in plasma)” value ([5]; 24 hr) of the same molecule?
Answer: Its value is 0.81.

Question: And the “L-chain (DAR in plasma)” value ([5]; 24 hr)?
Answer: The value was 1.26.

Question: What about the “Averaged DAR” value ([5]; 48 hr) of the same molecule?
Answer: Its value is 3.91.

Question: What about the “H-chain (DAR in plasma)” value ([5]; 48 hr) of the same molecule?
Answer: Its value is 0.71.

Question: What about the “L-chain (DAR in plasma)” value ([5]; 48 hr) of the same molecule?
Answer: Its value is 1.25.

Question: And the “Averaged DAR” value ([5]; 96 hr)?
Answer: Its value is 3.42.

Question: And the “H-chain (DAR in plasma)” value ([5]; 96 hr)?
Answer: Its value is 0.44.

Question: And the “L-chain (DAR in plasma)” value ([5]; 96 hr)?
Answer: Its value is 1.27.

Question: What about the “Averaged DAR” value ([5]; 336 hr) of the same molecule?
Answer: The value was 2.41.

Question: And the “H-chain (DAR in plasma)” value ([5]; 336 hr)?
Answer: The value was 0.35.

Question: And the “L-chain (DAR in plasma)” value ([5]; 336 hr)?
Answer: Its value is 0.86.

Question: And the “Averaged DAR” value ([5]; […])?
Answer: The value was 2.61.

Question: And the “H-chain (DAR in plasma)” value ([5]; […])?
Answer: The value was 0.38.

Question: What about the “L-chain (DAR in plasma)” value ([5]; […]) of the same molecule?
Answer: Its value is 0.93.

Question: What about the “payload release rate (DAR analysis of plasma samples)” value ([5]; DAR6 vs DAR2) of the same molecule?
Answer: The value was “higher”.

Question: What about the body weight change [6] of the same molecule?
Answer: Its body weight change is “No body weight loss”.

Question: And the “cytotoxicity on MSLN-positive cell lines” value (MSLN-positive cell lines)?
Answer: Its value is “specific cytotoxicity”.

Question: And the “anti-tumor activity as compared to the MTD dose of eribulin alone” value ([7]; Meso7212 (MV15369), both treatment regimens, P<0.05)?
Answer: The value was “significantly increased anti-tumor activity”.

Question: And the anti-tumor response ([7]; Meso7212 (MV15369))?
Answer: Its anti-tumor response is “durable and comparable anti-tumor responses”.

Question: And the anti-tumor response ([7]; Meso7212 (MV16071))?
Answer: The anti-tumor response was “durable and comparable anti-tumor responses”.
